According to US20240400687A1 (Regeneron, published 2024):

B1: 2 + 1 m20_mPL_3 (Fc fusion)
heavy 1: QVQLQQPGAELVRPGTSVKLSCKASGYTFTSYWMHWIKQRPGQGLEWIGVIDPSDNYTKYNQKFKGKATLTVDTSSSTAYMQLSSLTSEDSAVYFCAREGYYGSSPWFAYWGQGTLVTVSSASTKGPSVFPLAPSSKSTSGGTAALGCLVKDYFPEPVTVSWNSGALTSGVHTFPAVLQSSGLYSLSSVVTVPSSSLGTQTYICNVNHKPSNTKVDKKVEPKSCDGGGGSGGGGS[in this place about 200 residues][in this place about 250 residues]
heavy 2: QVQLQQPGAELVRPGTSVKLSCKASGYTFTSYWMHWIKQRPGQGLEWIGVIDPSDNYTKYNQKFKGKATLTVDTSSSTAYMQLSSLTSEDSAVYFCAREGYYGSSPWFAYWGQGTLVTVSSASTKGPSVFPLAPSSKSTSGGTAALGCLVKDYFPEPVTVSWNSGALTSGVHTFPAVLQSSGLYSLSSVVTVPSSSLGTQTYICNVNHKPSNTKVDKKVEPKSCDKTHTCPPCPAPEAEGAPSVFLFPPKPKDTLMISRTPEVTCVVVDVSHEDPEVKFNWYVDGVEVHNAKTKPREEQYNSTYRVVSVLTVLHQDWLNGKEYKCKVSNKALPSSIEKTISKAKGQPREPQVCTLPPSRDELTKNQVSLSCAVKGFYPSDIAVEWESNGQPENNYKTTPPVLDSDGSFFLVSKLTVDKSRWQQGNVFSCSVMHEALHNRFTQKSLSLSPGK
light: QIVMSQSPAILSASPGEKVTMTCRARSSVSYIHWYQQKPGSSPKPWIYATSNLASGVPGRFSGSGSGTSYSLTITRVEAEDAATYYCQQWSSKPPTFGGGTKLEIKRTVAAPSVFIFPPSDEQLKSGTASVVCLLNNFYPREAKVQWKVDNALQSGNSQESVTEQDSKDSTYSLSSTLTLSKADYEKHKVYACEVTHQGLSSPVTKSFNRGEC
B2: m20_mPL_1 (Fc fusion)
chain: [in this place about 200 residues][in this place about 250 residues]
heavy: QVQLQQPGAELVRPGTSVKLSCKASGYTFTSYWMHWIKQRPGQGLEWIGVIDPSDNYTKYNQKFKGKATLTVDTSSSTAYMQLSSLTSEDSAVYFCAREGYYGSSPWFAYWGQGTLVTVSSASTKGPSVFPLAPSSKSTSGGTAALGCLVKDYFPEPVTVSWNSGALTSGVHTFPAVLQSSGLYSLSSVVTVPSSSLGTQTYICNVNHKPSNTKVDKKVEPKSCDKTHTCPPCPAPEAEGAPSVFLFPPKPKDTLMISRTPEVTCVVVDVSHEDPEVKFNWYVDGVEVHNAKTKPREEQYNSTYRVVSVLTVLHQDWLNGKEYKCKVSNKALPSSIEKTISKAKGQPREPQVCTLPPSRDELTKNQVSLSCAVKGFYPSDIAVEWESNGQPENNYKTTPPVLDSDGSFFLVSKLTVDKSRWQQGNVFSCSVMHEALHNRFTQKSLSLSPGK
light: QIVMSQSPAILSASPGEKVTMTCRARSSVSYIHWYQQKPGSSPKPWIYATSNLASGVPGRFSGSGSGTSYSLTITRVEAEDAATYYCQQWSSKPPTFGGGTKLEIKRTVAAPSVFIFPPSDEQLKSGTASVVCLLNNFYPREAKVQWKVDNALQSGNSQESVTEQDSKDSTYSLSSTLTLSKADYEKHKVYACEVTHQGLSSPVTKSFNRGEC
notes: KiH-1 x N-Ligand, mPD1 x mCD20, 123.2 kDa; also called Molecule ID A
B3: 2 + 2 m20_mPL_3 (Fc fusion)
chain: [in this place about 200 residues][in this place about 250 residues][in this place about 200 residues]
heavy: QVQLQQPGAELVRPGTSVKLSCKASGYTFTSYWMHWIKQRPGQGLEWIGVIDPSDNYTKYNQKFKGKATLTVDTSSSTAYMQLSSLTSEDSAVYFCAREGYYGSSPWFAYWGQGTLVTVSSASTKGPSVFPLAPSSKSTSGGTAALGCLVKDYFPEPVTVSWNSGALTSGVHTFPAVLQSSGLYSLSSVVTVPSSSLGTQTYICNVNHKPSNTKVDKKVEPKSCDKTHTCPPCPAPEAEGAPSVFLFPPKPKDTLMISRTPEVTCVVVDVSHEDPEVKFNWYVDGVEVHNAKTKPREEQYNSTYRVVSVLTVLHQDWLNGKEYKCKVSNKALPSSIEKTISKAKGQPREPQVCTLPPSRDELTKNQVSLSCAVKGFYPSDIAVEWESNGQPENNYKTTPPVLDSDGSFFLVSKLTVDKSRWQQGNVFSCSVMHEALHNRFTQKSLSLSPGKGGGGSGGGGSGGGGSQVQLQQPGAELVRPGTSVKLSCKASGYTFTSYWMHWIKQRPGQGLEWIGVIDPSDNYTKYNQKFKGKATLTVDTSSSTAYMQLSSLTSEDSAVYFCAREGYYGSSPWFAYWGQGTLVTVSSASTKGPSVFPLAPSSKSTSGGTAALGCLVKDYFPEPVTVSWNSGALTSGVHTFPAVLQSSGLYSLSSVVTVPSSSLGTQTYICNVNHKPSNTKVDKKVEPKSCD
light: QIVMSQSPAILSASPGEKVTMTCRARSSVSYIHWYQQKPGSSPKPWIYATSNLASGVPGRFSGSGSGTSYSLTITRVEAEDAATYYCQQWSSKPPTFGGGTKLEIKRTVAAPSVFIFPPSDEQLKSGTASVVCLLNNFYPREAKVQWKVDNALQSGNSQESVTEQDSKDSTYSLSSTLTLSKADYEKHKVYACEVTHQGLSSPVTKSFNRGEC
notes: KiH-2 x 2 Fusion, (mPD1/mPD1) x (mCD20/mCD20), 197.1 kDa; also called Molecule ID K
B4: 2 + 2 m20_mPL_4 (Fc fusion)
heavy: QVQLQQPGAELVRPGTSVKLSCKASGYTFTSYWMHWIKQRPGQGLEWIGVIDPSDNYTKYNQKFKGKATLTVDTSSSTAYMQLSSLTSEDSAVYFCAREGYYGSSPWFAYWGQGTLVTVSSASTKGPSVFPLAPSSKSTSGGTAALGCLVKDYFPEPVTVSWNSGALTSGVHTFPAVLQSSGLYSLSSVVTVPSSSLGTQTYICNVNHKPSNTKVDKKVEPKSCDGGGGSGGGGS[in this place about 200 residues][in this place about 250 residues]
light: QIVMSQSPAILSASPGEKVTMTCRARSSVSYIHWYQQKPGSSPKPWIYATSNLASGVPGRFSGSGSGTSYSLTITRVEAEDAATYYCQQWSSKPPTFGGGTKLEIKRTVAAPSVFIFPPSDEQLKSGTASVVCLLNNFYPREAKVQWKVDNALQSGNSQESVTEQDSKDSTYSLSSTLTLSKADYEKHKVYACEVTHQGLSSPVTKSFNRGEC

Columns and labels:
mouse PD1 (mPD1) [1] = molecular target: T1, mouse PD1 (mPD1) (mouse, UniProt Q02242 25-288); assay: cell-based or functional assay
T1 sequence (looked up): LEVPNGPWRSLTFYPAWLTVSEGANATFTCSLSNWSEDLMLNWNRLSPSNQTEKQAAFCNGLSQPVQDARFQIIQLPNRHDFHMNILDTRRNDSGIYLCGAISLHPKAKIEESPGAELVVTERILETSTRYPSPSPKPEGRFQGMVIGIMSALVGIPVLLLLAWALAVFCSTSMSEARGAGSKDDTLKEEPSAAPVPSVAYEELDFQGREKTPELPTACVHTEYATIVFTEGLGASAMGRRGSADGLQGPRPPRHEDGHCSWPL

mouse CD20 (mCD20) = molecular target: T2, mouse CD20 (mCD20) (mouse, UniProt P19437 1-291); assay: flow cytometry on MC38/mCD20 cells
T2 construct: whole, on cells; also called murine CD20
T2 sequence (looked up): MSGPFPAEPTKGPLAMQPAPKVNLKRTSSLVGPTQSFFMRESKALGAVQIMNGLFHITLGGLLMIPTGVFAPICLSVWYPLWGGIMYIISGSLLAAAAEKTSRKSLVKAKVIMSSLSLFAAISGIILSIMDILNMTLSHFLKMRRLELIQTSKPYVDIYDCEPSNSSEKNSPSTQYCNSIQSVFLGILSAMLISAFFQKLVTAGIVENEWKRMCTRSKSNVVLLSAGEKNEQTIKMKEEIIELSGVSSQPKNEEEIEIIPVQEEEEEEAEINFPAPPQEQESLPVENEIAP
Experimental: (§1) Cells (HEK 293, MC38 over-expressing mCD20, or Jurkat over-expressing mPD1) were resuspended in FACS wash (PBS with 1% FBS) at 1×10⁶ cells/mL. The staining was performed in 1×10⁵ cells per well. The antibodies were diluted with a ratio of 1:5 from a starting concentration of 1.3×10⁻⁰⁷ M. The diluted antibodies were then added into the wells containing cells. Cells were stained for 30 min at 2-8° C. and washed twice with FACS wash buffer. APC-conjugated goat anti-human IgG (Jackson Immuno Research, 109-607-003, 1:400) or AF647-conjugated goat anti-mFc Fab (Jackson Immuno Research, 115-607-185, 1:400) was added to stain the cells for 30 min at 2-8° C. Following washing, cells were fixed in 2% paraformaldehyde for 30 min at 2-8° C. After two washes, stained cells were analyzed using BD LSRFortessa™ FACS instrument. The results were analyzed by FlowJo. FSC/SSC gates were used to select mononuclear cells.

mouse PD1 (mPD1) [2] = molecular target: T1, mouse PD1 (mPD1); assay: flow cytometry on Jurkat/mPD1 cells
Experimental: as §1

| Binder | IC50 (M), luciferase bioassay, 1 nM CD3 bsAb (mouse PD1 (mPD1) [1]) [M] | Max % inhibition, luciferase bioassay, 1 nM CD3 bsAb (mouse PD1 (mPD1) [1]) [%] | Max % inhibition, luciferase bioassay, 2.5 nM CD3 bsAb (mouse PD1 (mPD1) [1]) [%] | Max MFI (mouse CD20 (mCD20)) [MFI] | Max MFI (mouse PD1 (mPD1) [2]) [MFI] | IC50 (M), luciferase bioassay, 2.5 nM CD3 bsAb (mouse PD1 (mPD1) [1]) [M] | EC50 (mouse CD20 (mCD20)) [nM] | EC50 (mouse PD1 (mPD1) [2]) [nM] |
| --- | --- | --- | --- | --- | --- | --- | --- | --- |
| B1 | 7.7e-10 | 80 |  |  |  |  |  |  |
| B2 |  |  | 18 | 16800 | 8150 |  |  |  |
| B3 |  |  | 33 | 35300 | 6980 | 6.5e-11 | 8.42 | 6.31 |
| B4 | 1.91e-10 | 84 |  |  |  |  |  |  |
